# According to the supplement of paper PMC8728848:
# This is one part of the list.
# Assays:
# Assay in all cases: glycan array binding signal (z-score within array); higher = stronger binding
# Conditions in all cases: glycan notation: IUPAC condensed, linker removed
# [1] = target: Man(a1-3)[Man(a1-6)]Man(a1-6)[Man(a1-3)]Man
# How it was run: (§1)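 Columns mapping to the same glycan were averaged after glycan names were converted to IUPAC-condensed notation. The data come from 3228 arrays in the Consortium for Functional Glycomics database, limited to those with an available protein sequence. Binding is reported as a within-array Z-score averaged across arrays of one protein sequence and across linkers.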
# [2] = target: Man(a1-3)[Man(a1-6)]Man(a1-6)[Man(a1-3)]Man(b1-4)GlcNAc(b1-4)GlcNAc
# How it was run: as §1
# [3] = target: Man(a1-3)[Man(a1-6)]Man(b1-4)GlcNAc(b1-4)GlcNAc
# How it was run: as §1
# [4] = target: Man(a1-3)[Man(a1-6)]Man(b1-4)GlcNAc(b1-4)[Fuc(a1-6)]GlcNAc
# How it was run: as §1
# [5] = target: Man(a1-6)Man
# How it was run: as §1
# [6] = target: Man(b1-4)GlcNAc
# How it was run: as §1
# [7] = target: Neu5Ac(a2-3)Gal
# How it was run: as §1
# [8] = target: Neu5Ac(a2-3)Gal(b1-3)GalNAc
# How it was run: as §1
# [9] = target: Neu5Ac(a2-3)Gal(b1-3)GalNAc(b1-3)Gal(a1-4)Gal(b1-4)Glc
# How it was run: as §1
# [10] = target: Neu5Ac(a2-3)Gal(b1-3)GalNAc(b1-4)[Neu5Ac(a2-3)]Gal(b1-4)Glc
# How it was run: as §1
# [11] = target: Neu5Ac(a2-3)Gal(b1-3)GalNAc(b1-4)[Neu5Ac(a2-8)Neu5Ac(a2-3)]Gal(b1-4)Glc
# How it was run: as §1
# [12] = target: Neu5Ac(a2-3)Gal(b1-3)GalNAc6S
# How it was run: as §1
# [13] = target: Neu5Ac(a2-3)Gal(b1-3)GlcNAc
# How it was run: as §1
# [14] = target: Neu5Ac(a2-3)Gal(b1-3)GlcNAc(b1-2)Man(a1-3)[GlcNAc(b1-4)][Neu5Ac(a2-3)Gal(b1-3)GlcNAc(b1-2)Man(a1-6)]Man(b1-4)GlcNAc(b1-4)GlcNAc
# How it was run: as §1
# [15] = target: Neu5Ac(a2-3)Gal(b1-3)GlcNAc(b1-3)Gal(b1-3)GlcNAc
# How it was run: as §1
# [16] = target: Neu5Ac(a2-3)Gal(b1-3)GlcNAc(b1-3)Gal(b1-4)GlcNAc
# How it was run: as §1
# [17] = target: Neu5Ac(a2-3)Gal(b1-3)GlcNAc(b1-3)GalNAc
# How it was run: as §1
# [18] = target: Neu5Ac(a2-3)Gal(b1-3)GlcNAc(b1-6)GalNAc
# How it was run: as §1
# [19] = target: Neu5Ac(a2-3)Gal(b1-3)GlcNAc6S
# How it was run: as §1
# [20] = target: Neu5Ac(a2-3)Gal(b1-3)[Fuc(a1-4)]GlcNAc
# How it was run: as §1
# [21] = target: Neu5Ac(a2-3)Gal(b1-3)[Fuc(a1-4)]GlcNAc(b1-3)Gal(b1-3)[Fuc(a1-4)]GlcNAc
# How it was run: as §1
# [22] = target: Neu5Ac(a2-3)Gal(b1-3)[Fuc(a1-4)]GlcNAc(b1-3)Gal(b1-4)[Fuc(a1-3)]GlcNAc
# How it was run: as §1
# [23] = target: Neu5Ac(a2-3)Gal(b1-3)[Neu5Ac(a2-3)Gal(b1-4)]GlcNAc
# How it was run: as §1
# [24] = target: Neu5Ac(a2-3)Gal(b1-3)[Neu5Ac(a2-6)]GalNAc
# How it was run: as §1
# [25] = target: Neu5Ac(a2-3)Gal(b1-3)[Neu5Ac(a2-6)]GlcNAc(b1-3)[Fuc(a1-3)[Gal(b1-4)]GlcNAc(b1-6)]Gal(b1-4)Glc
# How it was run: as §1
# [26] = target: Neu5Ac(a2-3)Gal(b1-4)Glc
# How it was run: as §1
# [27] = target: Neu5Ac(a2-3)Gal(b1-4)GlcNAc
# How it was run: as §1
# [28] = target: Neu5Ac(a2-3)Gal(b1-4)GlcNAc(b1-2)Man
# How it was run: as §1
# [29] = target: Neu5Ac(a2-3)Gal(b1-4)GlcNAc(b1-2)Man(a1-3)[GlcNAc(b1-2)Man(b1-4)GlcNAc(b1-2)Man(a1-6)]Man(b1-4)GlcNAc(b1-4)GlcNAc
# How it was run: as §1
# [30] = target: Neu5Ac(a2-3)Gal(b1-4)GlcNAc(b1-2)Man(a1-3)[Neu5Ac(a2-3)Gal(b1-4)GlcNAc(b1-2)Man(a1-6)]Man(b1-4)GlcNAc(b1-4)[Fuc(a1-6)]GlcNAc
# How it was run: as §1
# [31] = target: Neu5Ac(a2-3)Gal(b1-4)GlcNAc(b1-2)Man(a1-3)[Neu5Ac(a2-6)Gal(b1-4)GlcNAc(b1-2)Man(a1-6)]Man(b1-4)GlcNAc(b1-4)GlcNAc
# How it was run: as §1
# [32] = target: Neu5Ac(a2-3)Gal(b1-4)GlcNAc(b1-2)[Neu5Ac(a2-3)Gal(b1-4)GlcNAc(b1-6)]Man(a1-6)[Neu5Ac(a2-3)Gal(b1-4)GlcNAc(b1-2)Man(a1-3)]Man(b1-4)GlcNAc(b1-4)GlcNAc
# How it was run: as §1
# [33] = target: Neu5Ac(a2-3)Gal(b1-4)GlcNAc(b1-3)Gal
# How it was run: as §1
# [34] = target: Neu5Ac(a2-3)Gal(b1-4)GlcNAc(b1-3)Gal(b1-3)GlcNAc
# How it was run: as §1
# [35] = target: Neu5Ac(a2-3)Gal(b1-4)GlcNAc(b1-3)Gal(b1-4)GlcNAc
# How it was run: as §1
# [36] = target: Neu5Ac(a2-3)Gal(b1-4)GlcNAc(b1-3)Gal(b1-4)GlcNAc(b1-3)Gal(b1-4)GlcNAc
# How it was run: as §1
binder,measurement,setting,value
CCL1 (Coprinopsis cinerea) (protein) MDTQAKPPAGRYVIYNRVLSPNGEKLALTYPGYQREALTLTPLHHSANQIWILNNWDATTSSLTPETARNTQVGWGSGNVPIVLPPGNYVWTLASSAGGYIIQDGGKTVYWNAGEAVANTKVSIGGDNGLQARWIFERV,glycan array binding signal (z-score),[1],-0.158
same,glycan array binding signal (z-score),[2],-0.165
same,glycan array binding signal (z-score),[3],-0.125
same,glycan array binding signal (z-score),[4],-0.142
same,glycan array binding signal (z-score),[5],-0.133
same,glycan array binding signal (z-score),[6],-0.165
same,glycan array binding signal (z-score),[7],-0.152
same,glycan array binding signal (z-score),[8],-0.095
same,glycan array binding signal (z-score),[9],-0.159
same,glycan array binding signal (z-score),[10],-0.132
same,glycan array binding signal (z-score),[11],-0.023
same,glycan array binding signal (z-score),[12],-0.152
same,glycan array binding signal (z-score),[13],-0.117
same,glycan array binding signal (z-score),[14],-0.156
same,glycan array binding signal (z-score),[15],-0.11
same,glycan array binding signal (z-score),[16],-0.122
same,glycan array binding signal (z-score),[17],-0.104
same,glycan array binding signal (z-score),[18],-0.104
same,glycan array binding signal (z-score),[19],-0.144
same,glycan array binding signal (z-score),[20],-0.151
same,glycan array binding signal (z-score),[21],-0.144
same,glycan array binding signal (z-score),[22],-0.082
same,glycan array binding signal (z-score),[23],-0.164
same,glycan array binding signal (z-score),[24],1.63
same,glycan array binding signal (z-score),[25],-0.115
same,glycan array binding signal (z-score),[26],-0.121
same,glycan array binding signal (z-score),[27],-0.148
same,glycan array binding signal (z-score),[28],-0.054
same,glycan array binding signal (z-score),[29],-0.124
same,glycan array binding signal (z-score),[30],-0.13
same,glycan array binding signal (z-score),[31],-0.095
same,glycan array binding signal (z-score),[32],-0.131
same,glycan array binding signal (z-score),[33],-0.133
same,glycan array binding signal (z-score),[34],-0.134
same,glycan array binding signal (z-score),[35],-0.154
same,glycan array binding signal (z-score),[36],-0.162
